Where “and” joins values, the source holds several entries; their conditions need not be identical. Equal entries are not always repeated. This is one part of the list. Shown are side measurements of this screen, not its main read-out; they come without a call.
Experiments:
Assay in all cases: Primary Screen for Target Class Profiling of Small Molecule Inhibitors of Methyltransferases
[1] = target: Glycine N-methyltransferase (Homo sapiens) (UniProt Q14749); conditions: purified enzyme, MTase-Glo SAH luminescence; measured here: GNMT inhibition; at 40 µM; stronger effect = lower value
Summary of the method: (§1)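 Each enzyme was reacted with SAM and its substrate, with compounds tested once at 40 uM; SAH formed was read by MTase-Glo luminescence.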

[2] = target: Guanidinoacetate N-methyltransferase (Homo sapiens) (UniProt Q14353); conditions: purified enzyme, MTase-Glo SAH luminescence; measured here: GAMT inhibition; at 40 µM; stronger effect = lower value
Summary of the method: as §1

[3] = target: Histamine N-methyltransferase (Homo sapiens) (UniProt P50135); conditions: purified enzyme, MTase-Glo SAH luminescence; measured here: HNMT inhibition; at 40 µM; stronger effect = lower value
Summary of the method: as §1

[4] = target: Nicotinamide N-methyltransferase (Homo sapiens) (UniProt P40261); conditions: purified enzyme, MTase-Glo SAH luminescence; measured here: NNMT inhibition; at 40 µM; stronger effect = lower value
Summary of the method: as §1

[5] = target: Phenylethanolamine N-methyltransferase (Homo sapiens) (UniProt P11086); conditions: purified enzyme, MTase-Glo SAH luminescence; measured here: PNMT inhibition; at 40 µM; stronger effect = lower value
Summary of the method: as §1
On the % scale 0 is the no-effect control and ±100 the full control effect.

## c1ccc(CN2CCNc3cnc(Nc4ccc(N5CCOCC5)cc4)cc3C2)cc1
[1]
  activity change, negative = inhibition: -44.1%
[2]
  activity change, negative = inhibition: -42.3%
[3]
  activity change, negative = inhibition: -45.5%
[4]
  activity change, negative = inhibition: -42.1%
[5]
  activity change, negative = inhibition: -58.1%

## COC(=O)c1ccc(NC(=O)CN(C)S(=O)(=O)c2ccc3[nH]c4c(c3c2)CCCC4)cc1
[1]
  activity change, negative = inhibition: 3.1%
[2]
  activity change, negative = inhibition: 4.56%
[3]
  activity change, negative = inhibition: 0.078%
[4]
  activity change, negative = inhibition: 4.41%
[5]
  activity change, negative = inhibition: 2.66%

## CCOc1cc2oc(=O)cc(-c3ccccc3)c2cc1Cl
[1]
  activity change, negative = inhibition: -6.65%
[2]
  activity change, negative = inhibition: 5.01%
[3]
  activity change, negative = inhibition: -0.655%
[4]
  activity change, negative = inhibition: -4.14%
[5]
  activity change, negative = inhibition: -8.9%

## COCCOCC1(CNC(=O)c2cccnc2)C[C@@H](O)[C@@H](O)C1 (stereo partly drawn)
[1]
  activity change, negative = inhibition: -2.51%
[2]
  activity change, negative = inhibition: -3.78%
[3]
  activity change, negative = inhibition: 0.624%
[4]
  activity change, negative = inhibition: -9.23%
[5]
  activity change, negative = inhibition: -11.7%

## COc1ccc(-c2c(-c3cc(C(=O)O)ccn3)ncn2C)cc1
[1]
  activity change, negative = inhibition: 4.16%
[2]
  activity change, negative = inhibition: 8.2%
[3]
  activity change, negative = inhibition: 7.19%
[4]
  activity change, negative = inhibition: -5.51%
[5]
  activity change, negative = inhibition: 4.75%

## C[C@@H]1CC[C@]2(C(=O)O)CC[C@]3(C)C(=CCC4[C@@]5(C)C[C@@H](O)[C@H](O)[C@@](C)(CO)C5CC[C@]43C)C2[C@]1(C)O (stereo partly drawn)
[1]
  activity change, negative = inhibition: -4.32%
[2]
  activity change, negative = inhibition: -5.38%
[3]
  activity change, negative = inhibition: 2.29%
[4]
  activity change, negative = inhibition: -19.2%
[5]
  activity change, negative = inhibition: -14.8%

## COC1=CC(=O)C=C(C)C12Oc1c(Cl)c(OC)cc(OC)c1C2=O (stereo not drawn)
[1]
  activity change, negative = inhibition: 4.98%
[2]
  activity change, negative = inhibition: 4.37%
[3]
  activity change, negative = inhibition: 7.48%
[4]
  activity change, negative = inhibition: -10.3%
[5]
  activity change, negative = inhibition: 2.2%

## Cc1cccc(C(=O)N2CC[C@H]3C(=O)NCCCCCCN(Cc4ccncc4)[C@@H]3C2)c1
[1]
  activity change, negative = inhibition: -9%
[2]
  activity change, negative = inhibition: -9.3%
[3]
  activity change, negative = inhibition: -7.75%
[4]
  activity change, negative = inhibition: -10%
[5]
  activity change, negative = inhibition: -7.36%

## CCCCNc1nc2c(-c3ccc(Cl)cc3)nnn2c2ccccc12
[1]
  activity change, negative = inhibition: 3.62%
[2]
  activity change, negative = inhibition: -0.436%
[3]
  activity change, negative = inhibition: -2.75%
[4]
  activity change, negative = inhibition: 2.02%
[5]
  activity change, negative = inhibition: -4.18%

## CC/C(C)=C/C(=O)OC1C(OC2(C)CCC3C(C4C(C)CCC42)C3(C)C)OC(C)C(O)C1O (stereo not drawn)
[1]
  activity change, negative = inhibition: 1.11%
[2]
  activity change, negative = inhibition: 7.9%
[3]
  activity change, negative = inhibition: 8.89%
[4]
  activity change, negative = inhibition: -25.4%
[5]
  activity change, negative = inhibition: 4.17%

## O=c1[nH]cnc2c1ncn2[C@@H]1O[C@H](CO)[C@@H](O)[C@H]1O
[1]
  activity change, negative = inhibition: 5.79%
[2]
  activity change, negative = inhibition: 8.47%
[3]
  activity change, negative = inhibition: 8.07%
[4]
  activity change, negative = inhibition: -6.27%
[5]
  activity change, negative = inhibition: 5.15%

## CC1CCC(NC(=O)C2(C)Cn3c(cc4occc43)C(=O)N2Cc2ccccc2F)CC1 (stereo not drawn)
[1]
  activity change, negative = inhibition: 3.45%
[2]
  activity change, negative = inhibition: -0.744%
[3]
  activity change, negative = inhibition: 5.86%
[4]
  activity change, negative = inhibition: 0.841%
[5]
  activity change, negative = inhibition: 3.27%

## CC(C)Cn1c(=O)n(C)c(=O)c2[nH]cnc21
[1]
  activity change, negative = inhibition: 8.87%
[2]
  activity change, negative = inhibition: 6.76%
[3]
  activity change, negative = inhibition: 12.8%
[4]
  activity change, negative = inhibition: -11%
[5]
  activity change, negative = inhibition: -6.57%

## CCc1ccc(NS(=O)(=O)c2ccc3c(c2)n(C)c(=O)n3C)cc1
[1]
  activity change, negative = inhibition: -5.63%
[2]
  activity change, negative = inhibition: 4.8%
[3]
  activity change, negative = inhibition: -4.06%
[4]
  activity change, negative = inhibition: -36.3%
[5]
  activity change, negative = inhibition: -6.23%

## CC(=O)OCC1OC(O[C@H]2CC[C@@]3(C)C(CC[C@]4(C)C3CC=C3[C@@H]5CC(C)(C)CC[C@]5(C(=O)O)CC[C@]34C)[C@]2(C)CO)C(O)C(O)C1OC1OC(C)C(O)C(OC2OCC(O)C(O)C2O)C1O (stereo partly drawn)
[1]
  activity change, negative = inhibition: 3.75%
[2]
  activity change, negative = inhibition: 0.961%
[3]
  activity change, negative = inhibition: 5.56%
[4]
  activity change, negative = inhibition: -11.6%
[5]
  activity change, negative = inhibition: 5.03%

## COC(=O)CNC(=O)N1CCC2(CC1)CC(c1ccccc1)CN(C)C2 (stereo not drawn)
[1]
  activity change, negative = inhibition: 0.401%
[2]
  activity change, negative = inhibition: 1.74%
[3]
  activity change, negative = inhibition: -1.53%
[4]
  activity change, negative = inhibition: -2.31%
[5]
  activity change, negative = inhibition: 11.3%

## Cc1ccc(CNC(=O)CCc2nnc3n(CCc4ccccc4)c(=O)c4ccccc4n23)cc1
[1]
  activity change, negative = inhibition: -1.81%
[2]
  activity change, negative = inhibition: 0.447%
[3]
  activity change, negative = inhibition: 9.61%
[4]
  activity change, negative = inhibition: 14.2%
[5]
  activity change, negative = inhibition: 3.83%

## CCCn1c(=O)c2ccc(C(=O)NC(C)CC)cc2n2c(=O)n(CC(=O)Nc3ccccc3C)nc12 (stereo not drawn)
[1]
  activity change, negative = inhibition: -4.75%
[2]
  activity change, negative = inhibition: 1%
[3]
  activity change, negative = inhibition: 0.109%
[4]
  activity change, negative = inhibition: -3.1%
[5]
  activity change, negative = inhibition: -1.06%

## CN(Cc1cccnc1)C1CCCc2ccccc21 (stereo not drawn)
[1]
  activity change, negative = inhibition: -9.34%
[2]
  activity change, negative = inhibition: -1.9%
[3]
  activity change, negative = inhibition: -10.1%
[4]
  activity change, negative = inhibition: -9.44%
[5]
  activity change, negative = inhibition: 0.303%

## CCOC(=O)c1ccc2c(c1)[C@@H]1C=CC[C@@H]1[C@H](c1ccc(C(C)C)cc1)N2
[1]
  activity change, negative = inhibition: -26.4%
[2]
  activity change, negative = inhibition: -4.51%
[3]
  activity change, negative = inhibition: -15.5%
[4]
  activity change, negative = inhibition: -21.1%
[5]
  activity change, negative = inhibition: -14.4%

## CC(C)/C=C1\NC(=O)C(C(C)C)n2c1nc1ccccc1c2=O (stereo not drawn)
[1]
  activity change, negative = inhibition: 0%
[2]
  activity change, negative = inhibition: -3.49%
[3]
  activity change, negative = inhibition: -0.127%
[4]
  activity change, negative = inhibition: -28.2%
[5]
  activity change, negative = inhibition: 0.035%

## CCn1cc(S(=O)(=O)N2CCCC2Cc2noc(-c3ccccc3)n2)cn1 (stereo not drawn)
[1]
  activity change, negative = inhibition: -6.91%
[2]
  activity change, negative = inhibition: -9.85%
[3]
  activity change, negative = inhibition: -4.59%
[4]
  activity change, negative = inhibition: -15.6%
[5]
  activity change, negative = inhibition: -11.4%

## CC1(C(=O)N2CCCC2)CCC(=O)N1CCc1ccccc1Cl (stereo not drawn)
[1]
  activity change, negative = inhibition: 1.55%
[2]
  activity change, negative = inhibition: 0%
[3]
  activity change, negative = inhibition: 4.3%
[4]
  activity change, negative = inhibition: 5.24%
[5]
  activity change, negative = inhibition: 1.16%

## Cc1ccn2c(C(=O)N3CCCC(c4[nH]ncc4-c4ccccc4)C3)nnc2n1 (stereo not drawn)
[1]
  activity change, negative = inhibition: -5.43%
[2]
  activity change, negative = inhibition: -6.16%
[3]
  activity change, negative = inhibition: -1.67%
[4]
  activity change, negative = inhibition: -9.16%
[5]
  activity change, negative = inhibition: -5.85%

## CCc1ccc(CN2C(=O)c3cc4ccccc4n3CC2(C)C(=O)NCCC(C)C)cc1 (stereo not drawn)
[1]
  activity change, negative = inhibition: 2.55%
[2]
  activity change, negative = inhibition: 0%
[3]
  activity change, negative = inhibition: 2.83%
[4]
  activity change, negative = inhibition: -0.228%
[5]
  activity change, negative = inhibition: -1.41%

## COC1CN(c2cccc(F)c2)C12CCN(S(=O)(=O)c1cccs1)CC2 (stereo not drawn)
[1]
  activity change, negative = inhibition: -3.21%
[2]
  activity change, negative = inhibition: -4.17%
[3]
  activity change, negative = inhibition: 0.552%
[4]
  activity change, negative = inhibition: -12.4%
[5]
  activity change, negative = inhibition: -5.36%

## CCCCOc1cc(CC2CNC(=O)N2)ccc1OC (stereo not drawn)
[1]
  activity change, negative = inhibition: 1.79%
[2]
  activity change, negative = inhibition: 7.12%
[3]
  activity change, negative = inhibition: 4.61%
[4]
  activity change, negative = inhibition: -3.43%
[5]
  activity change, negative = inhibition: 6.38%

## CCOc1ccc(/C=C2\SC(=O)N(CCN)C2=O)cc1
[2]
  activity change, negative = inhibition: 11.7%
[4]
  activity change, negative = inhibition: -6.56%
[5]
  activity change, negative = inhibition: 3.09%

## O=C1NC(=O)/C(=C/c2ccc3c(c2)OC(F)(F)O3)S1
[1]
  activity change, negative = inhibition: -21.3% and -23.7%
[2]
  activity change, negative = inhibition: 8.57% and -9.99%
[3]
  activity change, negative = inhibition: 6.24% and 1.32%
[4]
  activity change, negative = inhibition: -9.08% and -28.4%
[5]
  activity change, negative = inhibition: 2.88% and -5.95%

## CCc1ccc(CNC(=O)C(C)n2ccc3cc(S(=O)(=O)N4CCCC4)ccc32)cc1 (stereo not drawn)
[1]
  activity change, negative = inhibition: -1.21%
[2]
  activity change, negative = inhibition: -3.05%
[3]
  activity change, negative = inhibition: -6.59%
[4]
  activity change, negative = inhibition: -5.3%
[5]
  activity change, negative = inhibition: -5.61%

Reference: PubChem BioAssay AID1745853 (National Center for Advancing Translational Sciences (NCATS), 2022)
